Results from the BET-seq Pho4 binding data (Le et al. 2018).
The other results are listed elsewhere or left out. These are noisy estimates, calculated here from bound and input reads.

Biological target: T1, Pho4 (S. cerevisiae) (UniProt P07270)
T1 sequence: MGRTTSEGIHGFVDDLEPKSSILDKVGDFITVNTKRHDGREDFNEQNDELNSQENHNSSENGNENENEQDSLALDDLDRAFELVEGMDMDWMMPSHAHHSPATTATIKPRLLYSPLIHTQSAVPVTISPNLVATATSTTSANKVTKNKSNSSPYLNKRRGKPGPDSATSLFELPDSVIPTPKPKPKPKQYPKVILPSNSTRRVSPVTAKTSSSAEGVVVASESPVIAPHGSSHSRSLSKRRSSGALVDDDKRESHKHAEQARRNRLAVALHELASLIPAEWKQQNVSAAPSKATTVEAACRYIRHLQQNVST
Test: relative binding free energy (BET-seq); higher = weaker binding
Settings: reference: library average

Sequence	relative binding free energy [kcal/mol]
TTAGGCACGTGCGGTC	-0.17
AAATGCACGTGGAGAG	-0.03
GCGAGCACGTGTCGGG	-0.07
TGGGTCACGTGGATAG	0.13
TGAATCACGTGGGGAA	0.15
ATGCTCACGTGTTTGA	0.19
ATTAACACGTGGGATA	-0.05
TATGTCACGTGAGTAG	0.32
TATTGCACGTGTAGCT	-0.12
CGGTTCACGTGAGCGT	0.36
AGGTGCACGTGTGGGT	-0.04
CTGGTCACGTGGGCTT	-0.19
CTGGACACGTGTTTGT	-0.01
TAATGCACGTGATAGT	0.1
AGGTCCACGTGGTTGG	-0.09
ATGGTCACGTGACTGA	0.33
TAGGGCACGTGGCGCT	-0.31
GTATTCACGTGGATCG	0.3
AGTCGCACGTGTGGCG	-0.03
GGGTGCACGTGTAGGA	0.11
TTGTCCACGTGTTCAT	0.09
TTAGACACGTGAAGGG	0.32
GGAGGCACGTGGGGGC	-0.18

Sequence	relative binding free energy [kcal/mol]
ACATTCACGTGGTGTT	0.05
AGAGCCACGTGGAGGG	-0.26
CGTCTCACGTGTGGGT	0.03
TGAGCCACGTGGGCTT	-0.13
AAATCCACGTGTTGTT	0.13
TTGTACACGTGTGTAC	0.11
TCTTGCACGTGGAAGT	0.13
GAGGTCACGTGGGGGC	0.02
TAGGGCACGTGGGGCG	-0.3
TGGGTCACGTGGCTGA	0.07
ATGGGCACGTGAGCTG	0
GGGTTCACGTGTCTAT	0.17
TTTGTCACGTGTAAGG	0.13
GAGGACACGTGATGTT	0.16
GCTTACACGTGTGCGG	0.12
GTTTGCACGTGTTCAG	0.03
TTAGACACGTGTGAGT	0.15
GAGTTCACGTGAGGGC	0.46
CTGAACACGTGGTTGG	-0.02
ATTCTCACGTGTCTTT	0.22
TGAATCACGTGGCATT	0.01
TGTTCCACGTGGGGCT	-0.2
AGGGACACGTGTGCTA	0.07

Sequence	relative binding free energy [kcal/mol]
ATATACACGTGGGTCG	-0.18
TGGTACACGTGTCAGA	0.12
GGAGCCACGTGAATGG	0.33
TAGACCACGTGGGGTT	-0.06
CTTGTCACGTGGTTCA	0.05
GGACCCACGTGGGGGT	-0.28
GGCTGCACGTGAGTGT	0.26
CGGGGCACGTGCTGAG	-0.16
TTGATCACGTGGGAGT	0.12
CATGACACGTGATTTG	0.23
TGAGACACGTGGGCGG	0
GGTCACACGTGAGGAG	0.29
TGATGCACGTGGTTCG	-0.12
TGCAGCACGTGTTGGT	-0.1
AGTATCACGTGCGTGT	-0.02
TGTATCACGTGTGCTG	0.24
ATTGTCACGTGACTTG	0.38
ATGGACACGTGGCGGA	-0.01
CTTGTCACGTGTTGAT	0
AGGGTCACGTGCGATT	0.13
TGCGGCACGTGGGGTC	-0.19
GCTAGCACGTGTTTTT	0.13
TGCGCCACGTGGTTTG	-0.27

Sequence	relative binding free energy [kcal/mol]
GGGTTCACGTGATTGT	0.49
AGCAGCACGTGTAGTG	0.04
GGTGTCACGTGTAGGC	0.07
TTTATCACGTGAAGCG	0.3
TAGGTCACGTGGTTGT	0.09
GATAGCACGTGGATTT	0.12
GGCGTCACGTGTGGCG	0.23
GTTCACACGTGTGTTT	0.21
GGGCGCACGTGAGGTA	0.02
AGCTTCACGTGTGGGA	0.27
TGGCTCACGTGGGGGA	0.04
TTTAACACGTGTAGGT	-0.04
TTTATCACGTGGTACA	0
GTTTTCACGTGTGGCT	0.4
TTTGCCACGTGGGCTT	-0.15
GATATCACGTGGGTGC	0.06
GTAAACACGTGGTGAT	-0.13
TAGTCCACGTGGTGAG	0
TTGCTCACGTGTCGTT	0.12
AGGTACACGTGGGAGG	-0.05
GGTACCACGTGAAGTG	0.38
CAGGACACGTGATTGG	0.2
GTGTCCACGTGGGCCG	0.11

Sequence	relative binding free energy [kcal/mol]
GTAGGCACGTGTTAGT	-0.01
TGGAGCACGTGGATTA	-0.22
TGAAGCACGTGGGTTC	-0.04
TAGTGCACGTGTAGCG	0
TTTAACACGTGTCGTT	0.04
TTAGGCACGTGCGCTG	-0.16
TTGTGCACGTGGCTAG	-0.03
AATAACACGTGTGAGT	0
GTGAGCACGTGTGATA	-0.01
GAGAGCACGTGGGAGT	-0.14
TTTACCACGTGGTATT	-0.09
TTAATCACGTGCGTGC	0.17
TGGTACACGTGGAAGT	0.18
AGTGGCACGTGTGTAT	-0.05
GGGGACACGTGTGGTC	0.11
TTATTCACGTGGTAGT	0.27
ATTAGCACGTGTTTGC	-0.08
TGTGGCACGTGCTTGA	-0.16
GAATACACGTGATTAT	0.46
ACGAGCACGTGGTTGT	-0.16
GGCTTCACGTGTGAGA	0.44
TGAATCACGTGTGTGG	0.16
GCGAGCACGTGGGTGT	-0.24
